# Measurements reported in PubChem BioAssay (Tox21).
# Several values for one entry are separate records, joined by “and”; a condition that tells them apart may be missing. Equal values may be shown once. Inconclusive results, whose numbers are uncertain, are shown with a selection of clear calls. Potencies of inconclusive entries are doubtful fits and often do not repeat. Activity calls are given as the source filed them. Calls come from the whole dose curve; as a rule, active = well fitted inhibition curve with a large enough effect in the repeat runs; inconclusive = weak or mixed curves; inactive = no such curve, though single readings can be large or run the other way.
# Assay: qHTS assay to identify small molecule antagonists of the thyroid receptor (TR) signaling pathway (AID 743065); note: nearly all actives have a fitted effect of over 55% in size
# Settings: GH3.TRE-Luc, T3-stimulated luciferase inhibition, 23.5 h; series mostly up to 70.3 µM
# In short: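 GH3.TRE-Luc rat pituitary cells (two TREs driving luciferase) were dosed with compound, then stimulated with 1 nM T3 (final) for 23.5 h at 37 C. ONE-Glo luminescence was the read-out, with CellTiter-Fluor fluorescence as the cytotoxicity counter-screen.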
# Potency is the fitted concentration of half-maximal effect; tags give direction and shape of the fitted curve.
row,Structure (SMILES),Potency
1,Cc1cc(NS(=O)(=O)c2ccc(N)cc2)no1,"inconclusive: 13.3 µM [inhibitor, single point]"
2,Cc1ccc(O)c(-n2nc3ccccc3n2)c1,"inconclusive: 68.6 µM [inhibitor, single point]"
3,CCCCCCC/C=C/C=O,"inconclusive: 77 µM [inhibitor, single point]"
4,CC(C)(C)C(=O)C1C(=O)c2ccccc2C1=O,"inconclusive: 67.9 µM [inhibitor, single point] and inconclusive: 68.6 µM [inhibitor, single point]"
5,CCCCC(CC)COP(=O)(O)O (stereo not given),"inconclusive: 69.7 µM [inhibitor, single point]"
6,Clc1ccc(Nc2nnc(Cc3ccncc3)c3ccccc23)cc1,"inconclusive: 26.6 µM [inhibitor, partial curve]"
7,O=C(CCCN1CC=C(n2c(=O)[nH]c3ccccc32)CC1)c1ccc(F)cc1,"inconclusive: 15 µM [inhibitor, partial curve, poor fit]"
8,C=C/C(C)=C/C/C=C(\C)CCC=C(C)C,"inconclusive: 48.6 µM [inhibitor, partial curve]"
9,CCO[Si](CCCNC(N)=O)(OCC)OCC,"inconclusive: 68.6 µM [inhibitor, single point]"
10,CC(C=O)Cc1ccc(C(C)(C)C)cc1 (stereo not given),"inconclusive: 54.4 µM [inhibitor, partial curve, poor fit]"
11,CCCCCCCCCCCCOC(C)=O,inactive
12,C/C=C(/C(=C/C)c1ccc(O)cc1)c1ccc(O)cc1,"inconclusive: 12.7 µM [inhibitor, single point]"
13,NC(=O)C(=O)N/N=C/c1ccc([N+](=O)[O-])o1,active: 21.1 µM
14,COc1cccc(O)c1O,"inconclusive: 20.1 µM [inhibitor, partial curve]"
15,O=C1c2ccccc2C(=O)N1CCc1noc(-c2ccc(CN3CCCCCC3)s2)n1,inconclusive: 56 µM [inhibitor]
16,CC(=O)[C@H]1CC[C@H]2[C@@H]3CC=C4C[C@@H](O)CC[C@]4(C)[C@H]3CC[C@]12C,"inconclusive: 7.5 µM [inhibitor, full curve] and inconclusive: 10.9 µM [inhibitor, full curve]"
17,CCCCOCCOC(=O)c1ccccc1C(=O)OCCOCCCC,"inconclusive: 48.6 µM [inhibitor, partial curve]"
18,CCOC(=O)[C@H](CCc1ccccc1)N[C@H]1CCc2ccccc2N(CC(=O)O)C1=O,active: 8.41 µM
19,COc1cc(N)c(Cl)cc1C(=O)NC1CCN(CCCOc2ccc(F)cc2)CC1OC (stereo not given),active: 11.4 µM
20,CC(C)Cc1ccc(C(C)C(=O)O)cc1 (stereo not given),"inconclusive: 55.3 µM [inhibitor, single point]"

row,Structure (SMILES),Potency
1,O=C1OC2(c3ccc(O)cc3Oc3cc(O)ccc32)c2ccccc21,"inconclusive: 43.3 µM [inhibitor, partial curve, poor fit]"
2,CCC(=O)C1CC(C(C)C)CC=C1C (stereo not given),inactive
3,O=C(O)c1cc(O)c2ccccc2c1O,"inconclusive: 24.3 µM [inhibitor, partial curve, poor fit]"
4,CC[C@H](C)COC(=O)/C=C/c1ccc(N=Cc2ccc(OC)cc2)cc1,"inconclusive: 68.5 µM [inhibitor, single point]"
5,CCN(CCC#N)c1ccccc1,inactive
6,CCC(O)OC(O)CC (stereo not given),inactive
7,CN1CCCC(n2nc(Cc3ccc(Cl)cc3)c3ccccc3c2=O)CC1 (stereo not given),active: 21.1 µM
8,CN1CCCN=C1COC(=O)C(O)(c1ccccc1)C1CCCCC1 (stereo not given),"inconclusive: 33.5 µM [inhibitor, single point]"
9,O=C1Cc2ccccc2N1c1c(Cl)cccc1Cl,"inconclusive: 61.1 µM [inhibitor, single point]"
10,Nc1c2c(nc3ccccc13)CCCC2,"inconclusive: 29.8 µM [inhibitor, single point] and inconclusive: 68.6 µM [inhibitor, single point]"
11,O=S(=O)(O)c1cc(S(=O)(=O)O)c2c(N=Nc3ccccc3)c(O)ccc2c1,inactive
12,NNCCc1ccccc1,"inconclusive: 14.3 µM [inhibitor, single point]"
13,O=C(CCN1CCC(c2ccccc2)C1)c1ccc2c(c1)OCCO2 (stereo not given),active: 26.6 µM
14,CCN(Cc1c(F)cccc1Cl)c1c([N+](=O)[O-])cc(C(F)(F)F)cc1[N+](=O)[O-],"inconclusive: 48.6 µM [inhibitor, partial curve]"
15,C1CN(SSN2CCOCC2)CCO1,"inconclusive: 61.1 µM [inhibitor, single point]"
16,Nc1ccc(Oc2ccc(N)c(N)c2)cc1,"inconclusive: 77 µM [inhibitor, single point]"
17,Nc1ccccc1N,"inconclusive: 70.2 µM [inhibitor, single point]"
18,Nc1ccc(N)c(Cl)c1,"inconclusive: 61 µM [inhibitor, single point]"
19,C=C[Si](OC(=C)C)(OC(=C)C)OC(=C)C,inactive
20,CC/C=C\C/C=C\C/C=C\CCCCCCCC(=O)O,"inconclusive: 68 µM [inhibitor, single point] and inconclusive: 68.6 µM [inhibitor, single point]"
